# Experimental data: article PMC4336329 (PLoS ONE, 2015)
# Out of some 310,000 compounds screened, about 2,200 (0.71%) showed an effect of 50% or more. The effect is printed as a negative number. The list shows a part of the results.
# Molecular target: human ether-à-go-go-related gene (hERG) potassium channel (human, UniProt Q12809)
# Assay: primary screen, population patch clamp on CHO cells stably expressing hERG
# human ether-à-go-go-related gene (hERG) potassium channel, sequence (Q12809 whole entry, looked up): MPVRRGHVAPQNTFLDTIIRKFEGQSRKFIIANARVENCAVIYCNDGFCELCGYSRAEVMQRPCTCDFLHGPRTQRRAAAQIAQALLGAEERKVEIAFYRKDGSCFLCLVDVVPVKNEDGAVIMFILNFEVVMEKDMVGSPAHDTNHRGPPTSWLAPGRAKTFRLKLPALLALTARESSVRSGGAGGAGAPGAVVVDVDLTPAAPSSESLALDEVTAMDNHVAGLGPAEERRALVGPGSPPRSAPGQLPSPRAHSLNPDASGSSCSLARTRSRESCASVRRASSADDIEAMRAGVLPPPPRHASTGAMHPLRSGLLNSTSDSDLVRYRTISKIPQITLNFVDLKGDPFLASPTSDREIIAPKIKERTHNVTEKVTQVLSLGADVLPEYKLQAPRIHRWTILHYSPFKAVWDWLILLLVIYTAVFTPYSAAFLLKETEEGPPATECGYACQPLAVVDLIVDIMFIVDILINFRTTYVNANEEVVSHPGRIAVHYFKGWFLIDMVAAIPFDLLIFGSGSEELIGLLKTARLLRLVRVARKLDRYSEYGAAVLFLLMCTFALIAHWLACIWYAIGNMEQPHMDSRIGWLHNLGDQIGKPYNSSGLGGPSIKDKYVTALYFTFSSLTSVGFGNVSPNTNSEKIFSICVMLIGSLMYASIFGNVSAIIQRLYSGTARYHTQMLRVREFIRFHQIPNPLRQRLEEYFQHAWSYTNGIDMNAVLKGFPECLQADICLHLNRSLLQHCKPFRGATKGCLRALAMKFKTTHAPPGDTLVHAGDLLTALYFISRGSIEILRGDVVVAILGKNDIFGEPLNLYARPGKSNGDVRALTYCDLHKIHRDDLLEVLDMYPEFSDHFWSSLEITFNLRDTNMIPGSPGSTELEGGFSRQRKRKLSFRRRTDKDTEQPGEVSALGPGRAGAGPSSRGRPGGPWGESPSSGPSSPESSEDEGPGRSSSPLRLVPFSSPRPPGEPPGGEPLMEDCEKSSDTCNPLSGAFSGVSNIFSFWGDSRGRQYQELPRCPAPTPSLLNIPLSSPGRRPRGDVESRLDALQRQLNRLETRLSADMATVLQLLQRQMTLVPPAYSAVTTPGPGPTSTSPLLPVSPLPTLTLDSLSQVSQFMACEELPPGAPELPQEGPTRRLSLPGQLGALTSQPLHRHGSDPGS
row,Compound,"hERG current change (%, negative = inhibition) at 1uM [%]"
1,COc1cc(OC)c(S(=O)(=O)N2CCN(C(=O)c3ccco3)CC2)cc1NC(C)=O,11
2,COc1ccc(Cl)cc1NC(=O)CN(C)C(=O)c1ccc(OCc2ccccc2)c(OC)c1,12.4
3,Cc1ccc(C)c(SCc2nc3sc(C(=O)O)c(C)c3c(=O)[nH]2)c1,14.4
4,NS(=O)(=O)c1ccc(NC(=S)N2CCN(c3cccc(Cl)c3)CC2)cc1,9.55
5,COc1ccc(OC)c(CN2CCN(c3ccc(S(=O)(=O)N4CCCC4)cn3)CC2)c1,3.95
6,Cc1ccccc1NC(=O)CN1CCc2ccccc2C1,18.2
7,O=S(=O)(NC1CC1)c1ccc(S(=O)(=O)N2CCc3ccccc32)cc1,-5.99
8,COc1ccc(C2=CC3=C(Br)C(=O)C(C)(OC(=O)c4ccc(Cl)nc4)C(=O)C3=CO2)cc1 (centres unmarked),9.53
9,CCn1c(SCC(=O)Nc2ccc(OC)c(OC)c2)nnc1-c1c[nH]c2ccccc12,6.41
10,CCOC(=O)N1CCN(S(=O)(=O)N2CCCC(C(=O)NCCCN3CCC(C)CC3)C2)CC1 (centres unmarked),12.3
11,CCN1C(=O)CSC1=Nc1ccc(OC)cc1,17.5
12,COc1c(NC(C)=O)c2ccccc2c2ccccc12,11.4
13,Fc1ccc(NC(=S)NCCN2CCOCC2)cc1,7.95
14,CCc1ccc(S(=O)(=O)c2nnn3c2nc(N2CCOCC2)c2ccccc23)cc1,11.2
15,Cc1ccccc1NC(=O)CCNS(=O)(=O)c1ccc2c(c1)CCC(=O)N2,10.3
16,O=C(CN1C(=O)COc2ccccc21)Nc1ccc(N2CCOCC2)cc1,2.74
17,CCCC(=O)NC(=S)Nc1ccc(S(=O)(=O)Nc2ccc(OCC)cc2)cc1,7.39
18,N#C/C(=C\c1ccc(-c2ccccc2)cc1)c1nc(-c2ccco2)cs1,1.87
19,CCOc1ccc(S(=O)(=O)N2CCC(C(=O)NCC3CCCO3)CC2)cc1 (centres unmarked),3.92
20,CCCC/C(O)=C1\C(=O)CCCC1=NCCc1c(C)[nH]c2ccc(OC)cc12,6.39
21,O=C(NC(NCc1ccccn1)(C(F)(F)F)C(F)(F)F)c1ccco1,-1.63
22,CC(C)Oc1cccc(NC(=O)c2cccn(Cc3ccc4c(c3)OC(F)(F)O4)c2=O)c1,7.37
23,CCOC(=O)c1ccc(N2C(=O)c3n[nH]c(C)c3C2c2ccc(OC)c(OC)c2)cc1 (centres unmarked),9.99
